Experiment [1] deals with T1, human BAFF (ACROBiosystems, BAF-H52D4) (human, UniProt Q9Y275 in part).
T1 construct: detected with anti-His-HRP
As to the kind of experiment: ELISA, sample coated, BAFF titrated, anti-His-HRP. The procedure:
(§1) The specific procedures are as follows:
(§2) The test sample was diluted to 2 μg/mL with a PBS (BasalMedia, B320) buffer at pH 7.4 and added to a 96-well microplate (Coming, 3590) at 100 μL/well. The plate was incubated at 4° C. overnight. After the liquid was discarded, 5 % skim milk (BD, 232100) diluted with PBS was added at 300 μL/well for blocking, and the mixture was incubated at 37° C. for 2 h. After the blocking was completed, the blocking solution was discarded, and the plate was washed 3 times with a PBST buffer (pH 7.4, PBS containing 0.1 % tween-20). […] After the incubation, the plate was washed 3 times with PBST. […] After the plate was washed 3 times with PBST, a TMB chromogenic substrate (KPL, 5120-0077) was added at 100 μL/well, and the mixture was incubated at room temperature for 10⁻¹⁵ min, and then 1 M H₂SO₄ was added at 50 μL/well to terminate the reaction. The absorbance values at 450 nm were taken using a microplate reader. The binding curves of antibodies to antigens were fitted using software, and the EC₅₀ values were calculated.
In general terms: ELISA stands for enzyme-linked immunosorbent assay.

In experiment [2] the target is T2, IL-23 (R&D Systems, 1290-IL-010) (UniProt Q9NPF7 20-189; P29460 23-328).
T2 sequence (looked up) 1: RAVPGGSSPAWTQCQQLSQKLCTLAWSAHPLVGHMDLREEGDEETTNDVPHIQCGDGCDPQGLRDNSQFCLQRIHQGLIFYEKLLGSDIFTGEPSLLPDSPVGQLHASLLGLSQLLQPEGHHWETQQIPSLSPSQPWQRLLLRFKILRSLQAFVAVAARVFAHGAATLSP
T2 sequence (looked up) 2: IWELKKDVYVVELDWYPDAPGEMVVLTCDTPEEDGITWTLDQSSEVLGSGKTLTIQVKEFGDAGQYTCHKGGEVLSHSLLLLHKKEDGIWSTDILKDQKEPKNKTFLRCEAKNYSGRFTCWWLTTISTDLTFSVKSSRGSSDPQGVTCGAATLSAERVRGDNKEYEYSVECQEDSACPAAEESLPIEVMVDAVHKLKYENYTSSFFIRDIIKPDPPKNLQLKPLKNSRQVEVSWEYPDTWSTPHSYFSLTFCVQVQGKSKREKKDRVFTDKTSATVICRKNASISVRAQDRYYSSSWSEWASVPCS
In words: cell-based or functional assay.

Experiment [3] concerns the target T3, human IL-23 (Sino Biological, CT048-H08H) (human, UniProt Q9NPF7 20-189; P29460 23-328).
T3 construct: also called human IL-23 protein; Human IL-23 p19
T3 sequence (looked up) 1: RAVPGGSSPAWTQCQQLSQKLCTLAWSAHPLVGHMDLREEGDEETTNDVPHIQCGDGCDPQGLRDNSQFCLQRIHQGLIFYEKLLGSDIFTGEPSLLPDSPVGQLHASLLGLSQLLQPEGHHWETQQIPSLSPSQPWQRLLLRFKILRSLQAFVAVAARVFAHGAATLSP
T3 sequence (looked up) 2: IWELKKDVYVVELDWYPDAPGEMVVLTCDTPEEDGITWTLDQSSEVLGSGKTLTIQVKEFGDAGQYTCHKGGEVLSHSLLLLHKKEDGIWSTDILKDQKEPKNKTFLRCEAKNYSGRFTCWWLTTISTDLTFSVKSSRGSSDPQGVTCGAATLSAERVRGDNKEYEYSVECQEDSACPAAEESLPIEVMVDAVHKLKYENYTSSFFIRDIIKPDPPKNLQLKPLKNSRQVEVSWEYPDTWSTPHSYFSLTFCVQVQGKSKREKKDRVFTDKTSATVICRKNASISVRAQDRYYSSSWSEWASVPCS
As to the kind of experiment: ELISA, sample coated, IL-23 titrated, anti-His-HRP. The procedure:
as §1, §2

In experiment [4] the target is T3, human IL-23 (Sino Biological, …). In words: competition ELISA, blocks IL-23/IL-23R; IL-23R coated, biotin-IL-23 + sample gradient. The method, then:
as §1
(§3) The receptor protein was diluted to 2 μg/mL with a PBS (BasalMedia, B320) buffer at pH 7.4 and added to a 96-well microplate (Corning, 3590) at 100 μL/well. The plate was incubated at 4° C. overnight. After the liquid was discarded, 1 % Casein blocking solution (Thermo, 37528) was added at 200 μL/well for blocking, and the plate was incubated at 37° C. for 2 h. After the blocking was complete, the blocking solution was discarded, and the plate was washed 3 times with a PBST buffer (pH 7.4 PBS containing 0.1 % tween-20) for later use. After the biotin-labeled ligand protein at a fixed concentration was mixed with an antibody or fusion protein diluted in a gradient, the mixture was pre-incubated at 37° C. for 30 min and then added to the blocked microplate. The plate was incubated at 37° C. for 1.5 h. After the incubation was complete, the plate was washed 3 times with PBST. Streptavidin-HRP (Invitrogen, 434323, diluted at 1:4000) was added at 100 μL/well, and the plate was incubated at 37° C. for 1 h. The supernatant was removed. […] The absorbance values at 450 nm were taken using a microplate reader. Curves for the inhibition of binding of the ligands to the receptors were fitted using software, and the IC₅₀ values were calculated.

Experiment [5] deals with T4, human BAFF (Sino Biological, 10056-HNCH) (human, UniProt Q9Y275 in part).
T4 construct: also called BAFF protein
As to the kind of experiment: competition ELISA, blocks BAFF/BAFF-R; BAFF-R coated, biotin-BAFF. The method, then:
as §1, §3

Experiment [6] concerns the target T3, human IL-23 (Sino Biological, …). In words: cell-based or functional assay.
Experiment [7] concerns the target T5, human APRIL (R&D Systems, 5860-AP-010/CF) (human, UniProt O75888 105-250, limits assumed).
T5 construct: the B cell assay names 'R&D Systems, 5860-AP'; also called APRIL protein
T5 sequence (looked up): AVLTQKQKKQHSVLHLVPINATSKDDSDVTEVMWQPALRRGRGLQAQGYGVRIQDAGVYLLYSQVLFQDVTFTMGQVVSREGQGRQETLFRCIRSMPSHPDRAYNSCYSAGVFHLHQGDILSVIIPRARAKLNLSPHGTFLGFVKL
As to the kind of experiment: competition ELISA, blocks APRIL/TACI; TACI coated, biotin-APRIL. The procedure: as §1, §3

The target of experiment [8] is T4, human BAFF (Sino Biological, 10056-HNCH). In words: competition ELISA, blocks BAFF/TACI; TACI coated, biotin-BAFF. The method, then: as §1, §3
T4 sequence (Q9Y275 134-285 limits assumed): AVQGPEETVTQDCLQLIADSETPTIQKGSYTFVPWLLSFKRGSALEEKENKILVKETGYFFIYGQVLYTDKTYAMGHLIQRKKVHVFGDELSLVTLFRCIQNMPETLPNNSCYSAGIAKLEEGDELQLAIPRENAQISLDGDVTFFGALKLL
In experiment [9] the target is T5, human APRIL (R&D Systems, …). As to the kind of experiment: cell-based or functional assay.
For experiment [10], the target named is BAFF (R&D Systems, 7537-BF). As to the kind of experiment: cell-based or functional assay.

The EC50 is the concentration needed to bring the measured effect to its halfway point. A low value points to a more potent agent. The IC50 is the concentration at which inhibition is half-maximal.

B1: Hu29-19T (other)
heavy: STSCREEQGEFYDHLLRDCISCASICGQHPKQCAAFCEGGGGSGGGGSGGGGSQVTLKESGPVLVKPTETLTLTCTVSGFSLTNYAISWVRQPPGKGLEWLGVIWTGGGTNYNSGIKSRLTISKDNSKSQVVLTMTNMDPVDTARYYCVREGDYGSYAGAMDYWGQGTTVTVSSASTKGPSVFPLAPSSKSTSGGTAALGCLVKDYFPEPVTVSWNSGALTSGVHTFPAVLQSSGLYSLSSVVTVPSSSLGTQTYICNVNHKPSNTKVDKKV[here human IgG1 Fc with changes without letters]GGGSSTSCREEQGEFYDHLLRDCISCASICGQHPKQCAAFCESS
light: DIVLTQSPDSLAVSLGERATINCRASESVDYYGISSMHWFQQKPGQPPKLLIYRASNLESGIPARFSGSGSRTDFTLTISSLQAEDVAVYYCQQANKDPYTFGGGTKVEIKRTVAAPSVFIFPPSDEQLKSGTASVVCLLNNFYPREAKVQWKVDNALQSGNSQESVTEQDSKDSTYSLSSTLTLSKADYEKHKVYACEVTHQGLSSPVTKSFNRGEC
notes: anti-IL23 IgG1 with a TACI polypeptide at the N- and the C-terminus of each heavy chain; also called anti-IL23 antibody fusion protein
As to B1, the EC50 is 5.21 nM in experiment [1] and 1.43 nM in experiment [3]. Moreover, the “IC50 for inhibiting IL-17 secretion” value in experiment [2] stood at 0.0165 nM. The concentration for half-maximal inhibition (IC50) in [4] came out at 0.497 nM; in experiment [5], 0.839 nM; in [7], 2.1 nM; in experiment [8], 1.27 nM. Moreover, the “Activity in inhibiting proliferation of BaF3-IL-23R cells (IC50, nM)” value in [6] is 0.139 nM. The “Activity in inhibiting proliferation of B cells (IC50, pM), APRIL” value in experiment [9] amounted to 8.11 pM. Besides, in [10], the “Activity in inhibiting proliferation of B cells (IC50, pM), BAFF” value was determined as 5.18 pM.

B2: Hu29-24T (other)
heavy: STSCREEQGEFYDHLLRDCISCASICGQHPKQCAAFCEGGGGSGGGGSGGGGSQVTLKESGPVLVKPTETLTLTCTVSGFSLTQYAISWVRQPPGKGLEWLGVIWTGGGTNYNSGIKSRLTISKDNSKSQVVLTMTNMDPVDTARYYCVREGDYGSYAGAMDYWGQGTTVTVSSASTKGPSVFPLAPSSKSTSGGTAALGCLVKDYFPEPVTVSWNSGALTSGVHTFPAVLQSSGLYSLSSVVTVPSSSLGTQTYICNVNHKPSNTKVDKKV[here human IgG1 Fc with changes without letters]GGGSSTSCREEQGEFYDHLLRDCISCASICGQHPKQCAAFCESS
light: DIVLTQSPDSLAVSLGQRATINCRASESVDYYGISSMHWFQQKPGQPPKLLIYRASNLESGIPARFSGSGSRTDFTLTISSLQAEDVAVYYCQQANKDPYTFGGGTKVEIKRTVAAPSVFIFPPSDEQLKSGTASVVCLLNNFYPREAKVQWKVDNALQSGNSQESVTEQDSKDSTYSLSSTLTLSKADYEKHKVYACEVTHQGLSSPVTKSFNRGEC
notes: as for B1
As for B2, the concentration giving a half-maximal response (EC50) in experiment [1] was 5.64 nM; in experiment [3], 1.52 nM. The “IC50 for inhibiting IL-17 secretion” value in experiment [2] is 0.0128 nM. Further, the IC50 is 0.314 nM in experiment [4], 1.03 nM in experiment [5], 1.39 nM in [7] and 1.07 nM in [8]. For the same molecule, the “Activity in inhibiting proliferation of BaF3-IL-23R cells (IC50, nM)” value in experiment [6] was found to be 0.232 nM. The “Activity in inhibiting proliferation of B cells (IC50, pM), APRIL” value in experiment [9] amounted to 4.8 pM. Besides, in [10], the “Activity in inhibiting proliferation of B cells (IC50, pM), BAFF” value was determined as 4.78 pM.

Source of the values: US20240400670A1 (JIANGSU HENGRUI PHARMACEUTICALS, published 2024).
